Experimental data taken from PubChem BioAssay AID624170 (National Center for Advancing Translational Sciences (NCATS), 2012).
The whole screen tested about 410,000 compounds, of which about 850 (0.21%) were called active. Inconclusive results, whose numbers are uncertain, are shown with a selection of clear calls. The call rests on the fitted dose curve; in most records, active means well fitted inhibition curve with a large enough effect; inconclusive means small, poorly fitted or top-dose-only effect, or another doubt; inactive means no such curve, though single readings can be large or run the other way. Potencies of inconclusive entries are left out as doubtful fits.

molecular target: Glutaminase kidney isoform, mitochondrial (Homo sapiens) (UniProt O94925); test: qHTS for Inhibitors of Glutaminase (GLS); conditions: GLS enzymatic activity, qHTS titration; series mostly up to 45.5 µM; activity change, negative = inhibition: at the top concentration
UniProt O94925, sequence (O94925 whole entry, looked up, canonical isoform): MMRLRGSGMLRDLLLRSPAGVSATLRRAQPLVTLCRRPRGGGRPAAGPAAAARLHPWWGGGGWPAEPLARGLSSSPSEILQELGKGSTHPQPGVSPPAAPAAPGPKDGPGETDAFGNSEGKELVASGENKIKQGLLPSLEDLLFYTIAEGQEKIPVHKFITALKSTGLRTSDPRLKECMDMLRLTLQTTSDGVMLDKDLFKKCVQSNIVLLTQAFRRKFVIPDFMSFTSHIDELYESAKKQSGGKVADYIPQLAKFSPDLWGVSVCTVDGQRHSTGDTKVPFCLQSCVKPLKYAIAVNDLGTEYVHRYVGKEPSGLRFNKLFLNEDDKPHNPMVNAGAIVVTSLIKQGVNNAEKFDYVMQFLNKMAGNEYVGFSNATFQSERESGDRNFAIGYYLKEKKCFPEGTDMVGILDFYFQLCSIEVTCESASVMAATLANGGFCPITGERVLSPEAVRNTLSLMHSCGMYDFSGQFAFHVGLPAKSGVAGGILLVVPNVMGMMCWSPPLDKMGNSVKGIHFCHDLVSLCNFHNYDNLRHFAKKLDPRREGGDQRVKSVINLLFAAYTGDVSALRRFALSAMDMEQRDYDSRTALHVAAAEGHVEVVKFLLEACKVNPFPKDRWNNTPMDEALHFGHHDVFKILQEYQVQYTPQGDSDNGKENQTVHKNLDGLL
Summary of the method: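 hKGA in 45 mM KH2PO4 (pH 8.2), 0.02% Tween-20 with compound, then 1mM L-Glutamine (stock as added) plus glutamate oxidase/HRP/Amplex red coupling mix. Fluorescence read initially and after 30 min at RT; signal change reflects glutamate formation.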
On the % scale 0 is the no-effect control and ±100 the full control effect; potency means the concentration at half of the fitted maximal effect; tags describe the fitted curve by direction and shape.

Structure (SMILES) | Potency | activity change, negative = inhibition
CC(C)C[C@@H](CN)NC(=O)c1nc[nH]c1C(=O)N[C@@H](Cc1c[nH]c2ccccc12)C(=O)CNC[C@H](C)NC(=O)c1nc[nH]c1C(=O)N[C@@H](CC(=O)O)C(=O)O | inconclusive [inhibitor, single point] | –
COc1cc(C2C3=C(COC3=O)OC(C)(C)Oc3cc4c(cc32)OCO4)cc(OC)c1OC (stereo not drawn) | – | inactive: -1.46%
Cc1cc(C(=O)NP(=O)(N2CC(C)OC(C)C2)N2CC(C)OC(C)C2)c(C)n1C1CC1 (stereo not drawn) | inconclusive [inhibitor, single point] | –
Cc1nn(CCOc2ccccc2)c(=O)n1-c1ccc(F)cc1 | – | inactive: -10.8%
COc1ccc(CNC(=O)C2CCCN2)cc1OC (stereo not drawn) | – | inactive: -0.829%
COc1ccc(NS(=O)(=O)c2ccc(N3CCOCC3)c(NC(=O)c3ccc(OC)cc3)c2)cc1 | – | inactive: -6.54%
Cc1ccc(S(=O)(=O)Nc2nc3n(n2)C(c2ccccc2Cl)C=C(c2ccccc2)N3)cc1 (stereo not drawn) | inconclusive [inhibitor, single point] | –
COc1ccc(N2CCCC2)c(NC(=O)c2ccc([N+](=O)[O-])o2)c1 | active: 12.6 µM | –
Cn1c(CCN2CCCCC2)nc2cc(NC(=O)COc3ccccc3)ccc21 | inconclusive [inhibitor, single point] | –
C/C(N)=C(/C#N)C(=O)CSc1nnc(NC(C)C)s1 | inconclusive [inhibitor, single point] | –
Nn1c(COc2ccc(Cl)cc2)n[nH]c1=S | – | inactive: 2.23%
COc1cc(OC)c(N(C)C(=O)c2cn(C3CCCC3)c(=O)c3c2c2ccccc2n3C)cc1Cl | – | inactive: -1.13%
CCc1ccc(Nc2nnc(SCC(=O)Nc3cccc(S(=O)(=O)NC4=NCCCCC4)c3)s2)cc1 | – | inactive: 8.71%
COc1ccc(CCC(=O)NCc2nc3cccnc3n2Cc2ccc(F)cc2)cc1 | – | inactive: -8.73%
COc1ccccc1CNS(=O)(=O)c1ccc2[nH]cc(C(=O)O)c(=O)c2c1 | inconclusive [inhibitor, single point] | –
Cc1c(Cl)cccc1NC(=O)C1CCCN(c2ncnc3onc(C)c23)C1 (stereo not drawn) | – | inactive: -6.23%
COc1cc(S(=O)(=O)N2CCCCCC2)ccc1-n1cnnn1 | inconclusive [inhibitor, single point] | –
Cc1ccc(N2C(=O)C3C4C=CC(C4)C3C2=O)cc1C (stereo not drawn) | – | inactive: -6.33%
O=C(NNc1ccc(Cl)cc1)C1CCC1 | inconclusive [inhibitor, partial curve, poor fit] | –
COc1ccccc1N(Cc1cc(=O)[nH]c2ccccc12)C(=O)c1ccc([N+](=O)[O-])cc1 | inconclusive [inhibitor, full curve] | –
COc1ccccc1C1C(C(=O)c2sc(C)nc2C)=C(O)C(=O)N1CCN1CCOCC1 (stereo not drawn) | – | inactive: 7.96%
O=C(CC1S/C(=N/N=C2CCCCCC2)NC1=O)Nc1ccccc1F (stereo not drawn) | – | inactive: -13.2%
Cc1cccc(-c2nnn3c2nc(NCc2ccc4c(c2)OCO4)c2ccccc23)c1 | – | inactive: 1.02%
Cc1cccc(NC(=O)CNC(=O)CCc2nc3sc4c(c3c(=O)[nH]2)CCCC4)c1C | inconclusive [inhibitor, single point] | –
COCCNc1nc2c(c(=O)n(Cc3ccccc3F)c(=O)n2C)n1C | active: 15.8 µM | –

Structure (SMILES) | Potency | activity change, negative = inhibition
O=C(Nc1nc(-c2cccs2)cs1)C1=COCCO1 | inconclusive [inhibitor, single point] | –
COc1ccc2c(c1)CC(C(=O)NCCCN1CCN(c3cccc(Cl)c3)CC1)CO2 (stereo not drawn) | – | inactive: 6.25%
O=C(N/N=C/c1ccc(O)c([N+](=O)[O-])c1)C1CC1(c1ccccc1)c1ccccc1 (stereo not drawn) | inconclusive [inhibitor, single point] | –
O=C1S/C(=C\c2ccc(N3CCOCC3)o2)C(=O)N1Cc1ccc(F)cc1 | inconclusive [inhibitor, single point] | –
O=C(CSc1ncc(-c2ccccc2)[nH]1)Nc1ccc(Cl)cc1 | – | inactive: 17.7%
CN(C)CCCNC(=O)/C(=C\c1ccc(-c2cccc([N+](=O)[O-])c2)o1)NC(=O)c1ccccc1 | inconclusive [inhibitor, single point] | –
Nc1nn(-c2ccccc2)c(N)c1N=Nc1cccc(F)c1 | – | inactive: -1.41%
CCOC(=O)C1=C(C)NC(=O)NC1c1ccc(C)o1 (stereo not drawn) | inconclusive [inhibitor, partial curve, poor fit] | –
Oc1ccc(/C(Cc2ccccn2)=N\Nc2ccccc2)c(O)c1 | inconclusive [inhibitor, partial curve, poor fit] | –
CC(=O)Nc1ccc(O)c(-c2nc3ccccc3s2)c1 | – | inactive: -4.57%
N/C(=N\OC(=O)c1ccccc1)c1ccn[nH]1 | – | inactive: 4.31%
CCOC1=C2[C@H](c3ccc(CC)cc3)N(S(=O)(=O)c3ccc(C)cc3)C[C@H]2C(C#N)(C#N)C(C#N)(C#N)C1 | inconclusive [inhibitor, partial curve] | –
Cc1cc(C)nc(SCc2nnc(SCC(=O)Nc3ncc(C)s3)n2Cc2ccco2)n1 | inconclusive [inhibitor, single point] | –
O=C(c1ccc(Cl)c(S(=O)(=O)N2CCCC2)c1)N1CCN(c2ccccc2)CC1 | inconclusive [inhibitor, single point] | –
COc1ccccc1OC(C)C(=O)N1CC(=O)Nc2ccccc21 (stereo not drawn) | inconclusive [inhibitor, single point] | –
COc1cc(/C=N/Nc2ccccn2)cc(OC)c1O | inconclusive [inhibitor, single point] | –
O=C(O)Cc1ccc(S(=O)(=O)N2CCCC2)s1 | inconclusive [inhibitor, single point] | –
CCN(c1ccccc1)S(=O)(=O)c1ccc(-c2cc(C)no2)s1 | – | inactive: -20.2%
COc1ccccc1CNC(=O)Cc1ccccc1 | – | inactive: -7.73%
COc1ccc(-c2nc3cnccn3c2NC2CCCCC2)cc1-c1cccc(Cl)c1 | inconclusive [inhibitor, single point] | –
COc1ccc(OCC(=O)Nc2c3c(nn2C(C)(C)C)CS(=O)(=O)C3)cc1 | inconclusive [inhibitor, single point] | –
Cc1ccc(/C=N/Nc2ccccn2)s1 | inconclusive [inhibitor, single point] | –
CN(Cc1ccccc1)c1ncnc2ccc(Br)cc12 | inconclusive [inhibitor, single point] | –
CCCc1cc(=O)[nH]c(Nc2cc(Cl)cc(Cl)c2)n1 | – | inactive: -23.9%
COc1ccc(N2CC(O)=C(c3nc(-c4ccccc4)cs3)C2=N)cc1 | inconclusive [inhibitor, single point] | –

Structure (SMILES) | Potency | activity change, negative = inhibition
CC(=O)NC1C(=O)N=C(SCC(=O)Nc2cccc(Cl)c2)NC1=O (stereo not drawn) | inconclusive [inhibitor, single point] | –
COc1ccc(S(=O)(=O)N(C)C[C@@H]2OCCCC[C@@H](C)Oc3ccc(NC(=O)NC(C)C)cc3C(=O)N([C@H](C)CO)C[C@@H]2C)cc1 | inconclusive [inhibitor, single point] | –
Oc1cccc(O)c1O | inconclusive [inhibitor, partial curve, poor fit] | –
COc1ccc(C2/C(=C(/O)c3ccc(C)cc3)C(=O)C(=O)N2CC2CCCO2)cc1OC (stereo not drawn) | inconclusive [inhibitor, single point] | –
CN(C)Cc1cc(C(F)(F)F)ccc1C(O)(c1ccccc1)c1ccccc1 | – | inactive: -1.85%
O=c1c2cc([N+](=O)[O-])ccc2sn1-c1ccccc1 | active: 10 µM | –
COc1ccc(SC[C@H](C)CN2CC[C@H](C(C)(C)C)CCC2=O)cc1 | – | inactive: -2.95%
CC(=O)N1C(=O)/C(=C2\SC(=S)N(NS(=O)(=O)c3ccc(C)cc3)C2=O)c2ccccc21 | – | inactive: 16.1%
CCc1ccccc1NC(=O)c1cc2nc(-c3ccc(Br)cc3)cc(C(F)(F)F)n2n1 | inconclusive [inhibitor, single point] | –
[O-]c1n[n+](-c2ccc(Cl)cc2)cc2ccccc12 | inconclusive [inhibitor, partial curve, poor fit] | –
COc1ccc2ccccc2c1C(O)c1nccn1C (stereo not drawn) | – | inactive: -1.94%
COc1ccc2cc(CNc3ccc(C)cc3)c(=O)n(CC(=O)Nc3ccc(C)cc3Cl)c2c1 | active: 12.6 µM | –
Cc1cc(C)n(-c2nncn2/N=C/c2ccccc2F)n1 | inconclusive [inhibitor, single point] | –
COc1ccc(OC)c(C2C(C(=O)c3ccc(C)o3)=C(O)C(=O)N2CCN2CCOCC2)c1 (stereo not drawn) | – | inactive: 9.05%
Cc1cccc(OC(=O)c2snnc2C)c1 | – | inactive: -2.02%
CC(Sc1nnnn1C1CCCCC1)C(=O)O (stereo not drawn) | inconclusive [inhibitor, single point] | –
COc1ccc(-c2cc(C(=O)NC(Cc3c[nH]c4ccccc34)C(=O)O)c(C)o2)cc1OC (stereo not drawn) | inconclusive [inhibitor, single point] | –
NS(=O)(=O)c1cccc(NC(=O)Cc2ccc(Cl)c(Cl)c2)c1 | – | inactive: -2.85%
CN(C)S(=O)(=O)c1cccc(NC(=O)CSc2cccc3cccnc23)c1 | inconclusive [inhibitor, partial curve, poor fit] | –
CCOc1ccccc1CNC(=O)c1ccc2nc(N3CCC(C)CC3)sc2c1 | – | inactive: -0.238%
CC(=O)N1c2ccccc2Oc2cc3ccccc3cc21 | – | inactive: -15.6%
CCOc1ccc(NC(=O)c2sc(-n3nc(C)c(CCC(C)C)c3C)nc2C)cc1 | – | inactive: -0.925%
CC(C(=O)OCC(=O)Nc1cccc(S(=O)(=O)N(C)C)c1)N1C(=O)c2ccccc2C1=O (stereo not drawn) | inconclusive [inhibitor, single point] | –
